# Hit rate of the full screen: of about 220,000 compounds, about 16,000 (7.3%) were called active. The shares of active, inactive and inconclusive entries below differ from those in the screen. Calls follow the shape of the dose curve; as a rule, active = well fitted inhibition curve with a large enough effect (not every such curve was filed as active); inconclusive = small, poorly fitted or top-dose-only effect, or another doubt; inactive = no such curve, though single readings can be large or run the other way. No potency is given beside an inconclusive call; the fits are too rough.
# Target: Aldehyde dehydrogenase 1A1 (Homo sapiens) (UniProt P00352)
# UniProt P00352, sequence (P00352 whole entry, looked up): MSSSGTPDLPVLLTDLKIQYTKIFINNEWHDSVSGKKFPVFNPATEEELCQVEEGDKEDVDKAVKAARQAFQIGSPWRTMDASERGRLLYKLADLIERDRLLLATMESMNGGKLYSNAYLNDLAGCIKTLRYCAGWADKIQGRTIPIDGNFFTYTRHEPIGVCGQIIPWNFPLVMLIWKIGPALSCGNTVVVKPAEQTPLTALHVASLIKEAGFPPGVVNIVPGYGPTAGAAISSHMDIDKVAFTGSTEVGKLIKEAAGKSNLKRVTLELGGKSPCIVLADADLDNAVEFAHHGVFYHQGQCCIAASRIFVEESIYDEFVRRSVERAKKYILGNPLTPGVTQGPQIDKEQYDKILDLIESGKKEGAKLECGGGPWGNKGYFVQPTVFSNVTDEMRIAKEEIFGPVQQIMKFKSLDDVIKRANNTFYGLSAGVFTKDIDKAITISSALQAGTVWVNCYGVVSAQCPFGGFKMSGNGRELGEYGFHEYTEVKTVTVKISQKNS
# Assay: qHTS Assay for Inhibitors of Aldehyde Dehydrogenase 1 (ALDH1A1)
# Conditions: Purified ALDH1A1, NADH fluorescence, propionaldehyde substrate; series mostly up to 75.3 µM
# Potency is read from the fitted curve at half-maximal effect; tags tell the direction and shape of the fitted curve.
row,Compound,Potency
1,COc1ccccc1-c1nn2c(-c3ccco3)nnc2s1,"inconclusive [inhibitor, single point]"
2,CCn1ccc(C(=O)NC2=C(C#N)CCC2)n1,"inconclusive [inhibitor, single point]"
3,COCc1cc(=O)[nH]c(-c2ccccc2OC(F)(F)F)n1,inactive
4,CC1CCN(C(=S)c2cn(Cc3ccccc3F)c3ccccc23)CC1,active: 14.1 µM
5,COc1ccccc1-n1nnnc1S(=O)(=O)Cc1ccc(Cl)cc1,active: 2.51 µM
6,O=Cc1ccc(N2CCCC2)c([N+](=O)[O-])c1,"inconclusive [inhibitor, partial curve]"
7,COc1cccc(-n2c(SCC(=O)N3c4ccccc4CC3C)nnc2-c2ccco2)c1 (stereo unspecified),active: 25.1 µM
8,CC(=O)SCC(=O)N=c1sc2cc(F)ccc2n1C,"inconclusive [inhibitor, single point]"
9,O=c1cc(-c2ccccc2)[nH]n1-c1nc2ccccc2[nH]1,inactive
10,Cc1ccc(N/C(=C\C(=O)c2ccccc2)C(=O)O)cc1,inactive
11,O=C(COc1ccccc1)Nc1cccc2nsnc12,"inconclusive [inhibitor, partial curve]"
12,O=C(Nc1ccccc1[N+](=O)[O-])c1nc[nH]c1C(=O)NCCO,"inconclusive [inhibitor, full curve]"
13,Cc1ccc(S(=O)(=O)N(C)C)cc1-n1c(SCC(=O)Nc2ccc(F)cc2)nc2ccccc2c1=O,"inconclusive [inhibitor, single point]"
14,CCS(=O)(=O)c1ccc(C(=O)Nc2ccccc2OC)c(Cl)c1Cl,inactive
15,O=C(Nc1ccc2c(c1)OCO2)N1CCN(c2ccccc2Cl)CC1,"inconclusive [inhibitor, partial curve]"
16,O=C1Nc2ccccc2OC1CC(=O)N1CCCC1 (stereo unspecified),"inconclusive [inhibitor, single point]"
17,CC(C)CC(C(=O)Oc1ccc2c3c(c(=O)oc2c1)CCC3)N1C(=O)c2ccccc2C1=O (stereo unspecified),"inconclusive [inhibitor, partial curve]"
18,O=C(Nc1ccccc1C(=O)O)c1ccc(Br)c(S(=O)(=O)NCc2ccccc2)c1,"inconclusive [inhibitor, single point]"
19,O=c1cc(CN2CCN(c3ccc(O)cc3)CC2)nc2scc(-c3ccccc3)n12,active: 14.1 µM
20,CN(C(=O)COC(=O)c1cc(-c2ccc(Cl)s2)nc2ccccc12)C1CCS(=O)(=O)C1 (stereo unspecified),"inconclusive [inhibitor, partial curve]"
21,Cc1ccc(NC(=O)/C=C/c2ccco2)nc1,inactive
22,c1ccc(Cn2nnnc2C(c2cccs2)N2CCCCCC2)cc1 (stereo unspecified),active: 14.1 µM
23,COc1ccc2c(c1OC)C(=O)N1N=C(c3ccc(Cl)cc3)CC21 (stereo unspecified),active: 11.2 µM
24,Cn1c(=O)cc(SCC(=O)NCCCN2CCN(c3ccc(F)cc3)CC2)c2ccccc21,"inconclusive [inhibitor, single point]"
25,CCOc1cc(S(=O)(=O)NCc2ccccn2)ccc1Cl,inactive
26,COc1ccc(NC(=S)NCCN2CCC(C)CC2)cc1Cl,inactive

row,Compound,Potency
1,Cc1cccc(CNc2nc(-c3ccc4c(c3)OCO4)nc3ccccc23)c1,"inconclusive [inhibitor, partial curve]"
2,COc1cccc(-c2csc(NC(=O)Oc3ccccc3)n2)c1,"inconclusive [inhibitor, single point]"
3,COc1ccc(-c2nc3n(c(=O)c2C#N)CCCS3)cc1,"inconclusive [inhibitor, partial curve]"
4,CCN(C(=O)Nc1ccccc1)c1ccccc1,inactive
5,CN(C)S(=O)(=O)c1ccc(C(=O)OCC(=O)c2ccc(OC(F)F)cc2OC(F)F)cc1,"inconclusive [inhibitor, single point]"
6,Fc1ccc(N2Cc3ccsc3C=N2)cc1,inactive
7,O=C(CSc1nc2c(sc3ccccc32)c(=O)n1Cc1ccccc1)NCC1CCCO1 (stereo unspecified),inactive
8,CC(=O)Nc1cc2c(=O)n(Cc3ccccc3)c(C)nc2cc1N1CCOCC1,"inconclusive [inhibitor, single point]"
9,Cc1cc(C)cc(N2CCCC2=O)c1,inactive
10,CCOC(=O)N1CCC(NC(=O)c2cc3c(C)nc4ccccc4c3o2)CC1,"inconclusive [inhibitor, single point]"
11,CN1CCN(C(=O)c2cc3nc(-c4ccc(Cl)cc4)cc(C(F)(F)F)n3n2)CC1,"inconclusive [inhibitor, single point]"
12,Cc1cc(C)n(-c2nc(Nc3ccccc3C(F)(F)F)nc(-n3nc(C)cc3C)n2)n1,inactive
13,C=CCn1c(O)c(N=NC(=S)Nc2ccc(OC)c(Cl)c2)c2ccccc21,active: 22.4 µM
14,CCCNC(=O)c1cc2c(C(F)(F)F)nn(C)c2s1,"inconclusive [inhibitor, single point]"
15,O=C(NN=C1c2ccccc2-c2ccccc21)c1ccccc1Br,inactive
16,C/C(CCc1ccccc1)=N\NC(=O)C(=O)Nc1cccc(Cl)c1,inactive
17,COC(=O)c1sc2[nH]c(=S)n(N)c(=O)c2c1C,"inconclusive [inhibitor, partial curve]"
18,O=C(N/N=C\c1cccs1)c1sccc1-n1cccc1,"inconclusive [inhibitor, single point]"
19,COc1cc(/C=C(/C#N)C(=O)NCCc2c[nH]c3ccccc23)ccc1OCc1ccccc1F,inactive
20,COc1ccc(/C(O)=C2/C(=O)C(=O)N(Cc3cccnc3)C2c2ccncc2)cc1F (stereo unspecified),"inconclusive [inhibitor, single point]"
21,O=C1c2ccccc2NC(c2ccc(Cl)cc2Cl)N1Cc1ccccc1 (stereo unspecified),"inconclusive [inhibitor, partial curve]"
22,COc1cccc(-c2cc(C(F)(F)F)nc(-n3cncn3)n2)c1,"inconclusive [inhibitor, single point]"
23,COc1ccccc1-c1oc2ccccc2c(=O)c1O,"inconclusive [inhibitor, single point]"
24,COC(=O)c1c(C(=O)OC)c2n(c1C)CCS2,inactive
25,Cc1cc(Nc2ccccc2)n(CCOC(=O)COc2ccccc2)n1,"inconclusive [inhibitor, partial curve]"
26,N#C/C(=C/c1ccccc1[N+](=O)[O-])c1nc(C2CC2)cs1,active: 11.2 µM

row,Compound,Potency
1,CN(CCC#N)C(=O)CSc1ncnc2sc(-c3ccccc3)cc12,"inconclusive [inhibitor, single point]"
2,COC(=O)c1c(-c2ccccc2)csc1NC(=O)c1c(-c2ccccc2)noc1C,"inconclusive [inhibitor, single point]"
3,O=[N+]([O-])c1ccccc1CNC(Cc1ccccc1)c1ccccc1 (stereo unspecified),active: 12.6 µM
4,O=C(Nc1ccc(S(=O)(=O)Nc2ncccn2)cc1)c1ccc(S(=O)(=O)N2CCCC2)cc1,active: 25.1 µM
5,CCCn1nnc2ccccc2c1=O,"inconclusive [inhibitor, partial curve]"
6,Cc1ccc(-n2c(Cc3cccs3)nnc2SCC(=O)Nc2ccc(S(N)(=O)=O)cc2)cc1,"inconclusive [inhibitor, single point]"
7,Cc1ccc(Cn2c(N3CCCCCC3)nc3c2c(=O)[nH]c(=O)n3C)cc1,active: 1.58 µM
8,COC(=O)NC(Nc1sc2c(c1C(N)=O)CCCC2)(C(=O)OC)C(F)(F)F (stereo unspecified),"inconclusive [inhibitor, single point]"
9,CCn1nnnc1SCC(=O)Nc1cccc(NC(C)=O)c1,inactive
10,CCN(CC)C(=S)NC(=O)c1cccnc1,"inconclusive [inhibitor, single point]"
11,Cn1c(=O)c(-c2ccc(F)cc2)nc2cnc(N3CCOCC3)nc21,"inconclusive [inhibitor, partial curve]"
12,O=C(Nc1ccc(S(=O)(=O)NC2=NCCCCC2)cc1)c1ccc2ccccc2n1,inactive
13,CCOc1ccc(-c2ccc(SCC(=O)N3CCN(c4ccccc4)CC3)nn2)cc1,active: 17.8 µM
14,Cc1ccc(OCCN2C(=O)S/C(=C\c3ccc(C)o3)C2=O)cc1,"inconclusive [inhibitor, single point]"
15,COc1ccc(C(=O)NNC(=O)c2ccccc2[N+](=O)[O-])cc1[N+](=O)[O-],active: 12.6 µM
16,CCOC(=O)c1csc(-c2snnc2C)n1,"inconclusive [inhibitor, single point]"
17,CCCN1C(=O)C(NC(C)=O)c2cc(OC)ccc21 (stereo unspecified),"inconclusive [inhibitor, full curve]"
18,CCn1c(SCC(=O)c2ccc(NC(C)=O)c(OC)c2)nnc1-c1ccc(NS(C)(=O)=O)cc1,inactive
19,O=[N+]([O-])c1ccc(O)c(C=Nc2ccc3c(c2)OCCO3)c1,"inconclusive [inhibitor, partial curve, poor fit]"
20,C=CCOn1c(=O)c(-c2ccc(OC)cc2)[n+]([O-])c2ccccc21,inactive
21,O=C(NC1CCCC1)C(c1ccsc1)N(CCc1ccccc1)C(=O)Cc1cccs1 (stereo unspecified),inactive
22,Cc1ccc(CNC(=O)C(=O)NCC2OCCN2S(=O)(=O)c2cccs2)cc1 (stereo unspecified),"inconclusive [inhibitor, partial curve]"
23,COc1ccc(-n2c(=O)c(-c3cccs3)nc3cnc(N4CCN(C)CC4)nc32)cc1,inactive
24,S=C(NCc1ccc(Cl)cc1)NC12CC3CC(CC(C3)C1)C2,"inconclusive [inhibitor, partial curve]"

# Reference: PubChem BioAssay AID1030 (National Center for Advancing Translational Sciences (NCATS), 2008)
